Read counts are not given, so values of variants with three or more changes are uncertain.
B1: CPEB3 Ribozyme (parent)
chain: UAACAGGGGGCCACAGCAGAAGCGUUCACGUCGCAGCCCCUGUCAGAUUCUGGUGAAUCUGCGAAUUCUGCUGUAUAUCUC

Variants of: B1
Test: self-cleavage, relative activity (ratio to wild type); higher = more cleavage; in vitro, sequencing
Summary of the method: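 Libraries of CPEB3 self-cleaving ribozyme mutants came from rounds of error-prone PCR and carried barcodes, which DNA sequencing matched to variants. In vitro transcription used T7 RNA polymerase at 37°C for 5 hours, with a further 15 min in DNase I before EDTA stopped the reaction; the ribozymes cleaved during both steps. The RNA was reverse transcribed with template switching and sequenced on Illumina. Relative activity is the cleaved/total read fraction of a variant divided by that of the unmutated ribozyme, averaged over three batches with at least 5 reads.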
UAACAGGGGGCCACAGCAGAAGCGUCCACGCCGCAGCCCCUGUCAGAUUCUGGUGAAUCUACGAAUUCUGCUGUAUAUCUC [U26C U31C G61A] showed a self-cleavage of 0.26.
Variant UAACAGGGGGCCACAGCAGAAGCGUCCACGCCGCAGCCCCAGUCAGAUUCUGGUGAAUCUGUGAACUCUGCUGUGUAUCUC [U26C U31C U41A C62U U66C A75G] has a self-cleavage of 0.13.
UAACAGGGGGCCACAGCAGAAGCGUCCACGCCGCAGCCCCUGUCAGAUUCCGGUGAAUCUGCGAAUUCGGCUGUAUAUCUC [U26C U31C U51C U69G] gave a self-cleavage of 0.35.
For UAACAGGGGGCCACAGCAGAAGCGUCCACGCCGCAGCCCCUGUCAGAUUCUGGUGAAUCUGCGAACUCUGCUGUAUAUCUC [U26C U31C U66C], the self-cleavage was 0.21.
For UAACAGGGGGCCACAGCAGAAGCGUCCACGUCGCAGCCCCAGUCAGGUUCUGGUGAUUCUGCGAAUUCUGCUGUAUAUCUC [U26C U41A A47G A57U], the self-cleavage was 0.06.
UAACAGGGGGCCACAGCAGAAGCGUCCACGUCGCAGCCCCAGUCAGAUUCUGGUGAGCCUGCGAAUUCUGCUGUAUAUCUC [U26C U41A A57G U58C] gave a self-cleavage of 0.16.
Work on UAACAGGGGGCCACAGCAGAAGCGUCCACGUCGCAGCCCCAGUCAGAUUCUGGUGAAUCUGCGGAUUCUGCUGUAUAUCUC [U26C U41A A64G] yielded a self-cleavage of 0.09.
In the case of UAACAGGGGGCCACAGCAGAAGCGUCCACGUCGCAGCCCCAGUCAGAUUCUGGUGAAUCUGCGAAUUCUGCUGUAUUUCUC [U26C U41A A77U], the self-cleavage is reported as 0.24.
UAACAGGGGGCCACAGCAGAAGCGUCCACGUCGCAGCCCCAGUCAAAUUCUGGUGAAUCUGCGAAUUCUGCUGUAUAUCUC [U26C U41A G46A] gave a self-cleavage of 0.09.
UAACAGGGGGCCACAGCAGAAGCGUCCACGUCGCAGCCCCAGUCAUAUUCUGGUGAAUCUGCGAAUUCUGCUGUAUAUCUC [U26C U41A G46U] gave a self-cleavage of 0.16.
UAACAGGGGGCCACAGCAGAAGCGUCCACGUCGCAGCCCCAGUCAGAUUCUGGUUAAUCUGCGAAUUCUGCUGUAUAUCUC [U26C U41A G55U] showed a self-cleavage of 0.25.
For UAACAGGGGGCCACAGCAGAAGCGUCCACGUCGCAGCCCCAGUCAGAUUCUGGUGAAUCUGCGAAUUCUGCUUUAUAUCUC [U26C U41A G73U], the self-cleavage was 0.31.
UAACAGGGGGCCACAGCAGAAGCGUCCACGUCGCAGCCCCAGACAUAUUCUGGUGAAUCUGCGAAUUCUGCUGUAUAUCUC [U26C U41A U43A G46U] showed a self-cleavage of 0.07.
With UAACAGGGGGCCACAGCAGAAGCGUCCACGUCGCAGCCCCAGUCAGACUCUGGUGAUUCUGCGAAUUCUGCUGUAUAUCUC [U26C U41A U48C A57U] the self-cleavage was 0.1.
UAACAGGGGGCCACAGCAGAAGCGUCCACGUCGCAGCCCCAGUCAGAUACUGGUGAAUCCGCGAAUUCUGCCGAAUACCUC [U26C U41A U49A U60C U72C U74A U78C] gave a self-cleavage of 0.06.
For UAACAGGGGGCCACAGCAGAAGCGUCCACGUCGCAGCCCCAGUCAGAUUCUGGUGAAUCUGCGAAUUCUGCUGUAUACCUC [U26C U41A U78C], the self-cleavage was 0.12.
Work on UAACAGGGGGCCACAGCAGAAGCGUCCACGUCGCAGCCCCCGUCAGAUACAGGUGAAUCUGCGAAUUCUGCUGUAUAUCUC [U26C U41C U49A U51A] yielded a self-cleavage of 0.24.
In the case of UAACAGGGGGCCACAGCAGAAGCGUCCACGUCGCAGCCCCCGUCAGAUUCAGGAGGAUCUGCGAGUUCUGCUGUAUAUCUC [U26C U41C U51A U54A A56G A65G], the self-cleavage is reported as 0.12.
Variant UAACAGGGGGCCACAGCAGAAGCGUCCACGUCGCAGCCCCCGUCAGAUUCUGGAGAAUCUGCGAAUACUGCCGUAUAUCUC [U26C U41C U54A U67A U72C] has a self-cleavage of 0.24.
With UAACAGGGGGCCACAGCAGAAGCGUCCACGUCGCAGCCCCCGUCAGAUUCUGGUGAAUCAGCGGAUUCUGCUGUGUAUCUC [U26C U41C U60A A64G A75G] the self-cleavage was 0.08.
For UAACAGGGGGCCACAGCAGAAGCGUCCACGUCGCAGCCCCCGUCAGAUUCUGGUGAAUCUGCGAAGUCCGCUGUAUAUCUC [U26C U41C U66G U69C], the self-cleavage was 0.2.
With UAACAGGGGGCCACAGCAGAAGCGUCCACGUCGCAGCCCCUGACAGAUUCUGGUGAAUCUGCGAAUUCUACCGUAUAUCUC [U26C U43A G70A U72C] the self-cleavage was 0.24.
Work on UAACAGGGGGCCACAGCAGAAGCGUCCACGUCGCAGCCCCUGACAGAUUCUGGUGAAUCUGCGAACUCUGCUGUAUAUCUC [U26C U43A U66C] yielded a self-cleavage of 0.2.
Work on UAACAGGGGGCCACAGCAGAAGCGUCCACGUCGCAGCCCCUGACAGAUUCUGGUGAAUCUGCGAAUUCUGCGGUAUAUCUC [U26C U43A U72G] yielded a self-cleavage of 0.27.
Work on UAACAGGGGGCCACAGCAGAAGCGUCCACGUCGCAGCCCCUGCCAGAUUCUGGUGGAUCUGCGGAUUCUGCUGUAUAUCUC [U26C U43C A56G A64G] yielded a self-cleavage of 0.5.
For UAACAGGGGGCCACAGCAGAAGCGUCCACGUCGCAGCCCCUGCCAGAUUCUGGUCAAUCUGCGAAUUCUGCUGUAUAUCUC [U26C U43C G55C], the self-cleavage was 0.26.
With UAACAGGGGGCCACAGCAGAAGCGUCCACGUCGCAGCCCCUGCCAGACUCUGGUGAACCUGCGAAUUCUGCUGUAUAUCUC [U26C U43C U48C U58C] the self-cleavage was 0.08.
In the case of UAACAGGGGGCCACAGCAGAAGCGUCCACGUCGCAGCCCCUGCCAGAUUCUGGUGAACCAGCGAAUUCUGCUGUAUAUCUC [U26C U43C U58C U60A], the self-cleavage is reported as 0.1.
Work on UAACAGGGGGCCACAGCAGAAGCGUCCACGUCGCAGCCCCUGCCAGAUUCUGGUGAAUCUGCGAAUUCCGCUGUAUAUCUC [U26C U43C U69C] yielded a self-cleavage of 0.17.
In the case of UAACAGGGGGCCACAGCAGAAGCGUCCACGUCGCAGCCCCUGUCAGAAUCGGGUGGAUCUGCGAAUUCUGCUGUAUAUUUC [U26C U48A U51G A56G C79U], the self-cleavage is reported as 0.18.
UAACAGGGGGCCACAGCAGAAGCGUCCACGUCGCAGCCCCUGUCAGAAUCUGGAGAAUCUGCGAAUUCUGCUGUAUAUCUC [U26C U48A U54A] showed a self-cleavage of 0.1.
Work on UAACAGGGGGCCACAGCAGAAGCGUCCACGUCGCAGCCCCUGUCAGACUCUGGUGAAUCUGCGUAUUCUGCUGUAUAUCUC [U26C U48C A64U] yielded a self-cleavage of 0.2.
With UAACAGGGGGCCACAGCAGAAGCGUCCACGUCGCAGCCCCUGUCAGACUCUGGUGAAUCUGCGAAUUCCGCUGUAUAUCUC [U26C U48C U69C] the self-cleavage was 0.26.
In the case of UAACAGGGGGCCACAGCAGAAGCGUCCACGUCGCAGCCCCUGUCAGAGUCUGGUGAAUCUGCGAAUUCUGCUGCAUAUCUC [U26C U48G U74C], the self-cleavage is reported as 0.38.

From the RNAGym collection of RNA variant scans (doi:10.1093/nar/gkz1192)
